This note sets out measurements from the supplement of paper PMC10037445.

“And” between values parts separate entries of the source, which are not always exact repeats. Identical values can stand only once. Whole data set: some 2,900 compounds, median “IRF Lucia reporter activity, fold change vs agonist alone” near 0.9, cut for the highest 2% near 2.8. Some of the results follow.

Assay [1] deals with RAW-Dual. The assay is described as follows: IRF Lucia reporter activity, fold change vs agonist alone; cytotoxicity flag (confluency mask): not cytotoxic; higher = enhanced IRF activity. The essentials: (§1)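 Library stock was pin-tooled at 50 nL into 384-well plates of RAW-Dual macrophages (50,000 cells/well, DMEM), followed 1 h later by a PRR agonist, and the cells were kept at 37 °C, 5% CO2. Supernatant collected after 20 hours was read for IRF by QuantiLuc luminescence and for NF-κB by QuantiBlue absorbance at 620 nm. Reporter activity is fold change over agonist-alone wells, and a well counted as cytotoxic when its IncuCyte confluency was below 70% of agonist controls in both mask sets.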

In assay [2] the test system is RAW-Dual. In words: IRF Lucia reporter activity, fold change vs agonist alone; higher = enhanced IRF activity. Conditions: library stock concentration (final ~1000-fold dilution): 10 mM, agonist: MPLA (TLR4) […]. The essentials: as §1
The subject of assay [3] is RAW-Dual. The assay is described as follows: IRF Lucia reporter activity, fold change vs agonist alone; cytotoxicity flag (confluency mask): cytotoxic (confluency <70% of control); higher = enhanced IRF activity. The essentials: as §1
[4] abbreviates: agonist: 3'3'-cGAMP (STING) 10 ug/mL.
The mark [5] stands for this setting: cytotoxicity flag (confluency mask): not cytotoxic.

As for `O=C(O)C(Cc1c[nH]c2ccccc12)N1C(=O)c2ccccc2C1=O` (stereo unspecified) (library stock concentration (final ~1000-fold dilution): 10 mM), the “IRF Lucia reporter activity” value in assay [1] (setting [4]) was 1.04; in assay [1] (agonist: LPS (TLR4) 0.1 ug/mL), 0.995.
Consider `O=C(O)C(Cc1c[nH]c2ccccc12)N1C(=O)c2ccccc2C1=O` (stereo unspecified), for which the “IRF Lucia reporter activity” value in assay [2] (setting [5]) turned out to be 0.981.
In the case of `CCc1ccc(Cc2ccc3c(c2)[C@]2(OC3)O[C@H](CO)[C@@H](O)[C@H](O)[C@H]2O)cc1` (library stock concentration (final ~1000-fold dilution): 10 mM), the figures for the “IRF Lucia reporter activity” value in assay [1] (setting [4]) and in assay [1] (agonist: LPS (TLR4) 0.1 ug/mL) were 1.08 and 1.35, respectively.
For the molecule `CCOC(=O)C1=C(C)NC(C)=C(C(=O)OCC)C1c1ccccc1/C=C/C(=O)OC(C)(C)C`, the “IRF Lucia reporter activity” value in assay [2] (setting [5]) came to 0.779.
Take `CCOC(=O)C1=C(C)NC(C)=C(C(=O)OCC)C1c1ccccc1/C=C/C(=O)OC(C)(C)C` (library stock concentration (final ~1000-fold dilution): 10 mM): the “IRF Lucia reporter activity” value in assay [1] (setting [4]) is 0.897 and 0.544; in assay [1] (agonist: LPS (TLR4) 0.1 ug/mL) it was 1.07 and 0.643.
With `O=C(O)c1ccc(CSc2nc(-c3ccccc3)cc(N3CCN(c4ccccc4Cl)CC3)n2)cc1` (library stock concentration (final ~1000-fold dilution): 10 mM), the “IRF Lucia reporter activity” value in assay [1] (setting [4]) came out at 0.715; in assay [1] (agonist: LPS (TLR4) 0.1 ug/mL) it was 1.37.
On to `CC1=C(C(=O)Nc2cc3cn[nH]c3cc2F)C(c2ccc(C(F)(F)F)cc2)CC(=O)N1` (stereo unspecified), for which the “IRF Lucia reporter activity” value in assay [2] (setting [5]) was found to be 0.774.
Take `CC1=C(C(=O)Nc2cc3cn[nH]c3cc2F)C(c2ccc(C(F)(F)F)cc2)CC(=O)N1` (stereo unspecified) (library stock concentration (final ~1000-fold dilution): 10 mM): the “IRF Lucia reporter activity” value in assay [1] (setting [4]) was 1.03; in assay [1] (agonist: LPS (TLR4) 0.1 ug/mL), 0.792.
For the molecule `CNC(=O)c1ccccc1Nc1nc(Nc2ccc(N3CCOCC3)cc2OC)ncc1Cl`, in assay [2] (setting [5]), the “IRF Lucia reporter activity” value stood at 0.232.
For the molecule `CNC(=O)c1ccccc1Nc1nc(Nc2ccc(N3CCOCC3)cc2OC)ncc1Cl` (library stock concentration (final ~1000-fold dilution): 10 mM), the entries for the “IRF Lucia reporter activity” value in assay [1] (setting [4]) and in assay [1] (agonist: LPS (TLR4) 0.1 ug/mL) were 0.0513 and 0.103, respectively.
In the same order, the values of `CCOC(=O)c1ncn2c1CN(C)C(=O)c1cc(F)ccc1-2` (library stock concentration (final ~1000-fold dilution): 10 mM) are 1.03 and 0.786.
In the case of `CCOC(=O)c1ncn2c1CN(C)C(=O)c1cc(F)ccc1-2`, the “IRF Lucia reporter activity” value in assay [2] (setting [5]) was determined as 1.08.
Regarding `O=C(O)Cc1ccc(O)cc1` (library stock concentration (final ~1000-fold dilution): 10 mM), the “IRF Lucia reporter activity” value in assay [1] (setting [4]) was determined as 1.06; in assay [1] (agonist: LPS (TLR4) 0.1 ug/mL), 1.31.
In the same order, the values of `CC(C(=O)O)c1cccc(C(=O)c2ccccc2)c1` (stereo unspecified) (library stock concentration (final ~1000-fold dilution): 10 mM) are 1.06 and 1.01.
With `CC(C(=O)O)c1cccc(C(=O)c2ccccc2)c1` (stereo unspecified), the “IRF Lucia reporter activity” value in assay [2] (setting [5]) turned out to be 0.998.
For `CCCCN(Cc1ccc(C(=O)NO)cc1)C(=O)Nc1ccccc1` (library stock concentration (final ~1000-fold dilution): 10 mM), the “IRF Lucia reporter activity” value in assay [1] (setting [4]) was 0.0591; in assay [1] (agonist: LPS (TLR4) 0.1 ug/mL), 1.7.
Turning to `CCCCN(Cc1ccc(C(=O)NO)cc1)C(=O)Nc1ccccc1`, the “IRF Lucia reporter activity” value in assay [2] (setting [5]) came to 1.55.
As to `COc1cc2nc(N3CCN(C(=O)C4CCCO4)CC3)nc(N)c2cc1OC.Cl` (stereo unspecified), the “IRF Lucia reporter activity” value in assay [2] (setting [5]) is 1.04.
In the case of `COc1cc2nc(N3CCN(C(=O)C4CCCO4)CC3)nc(N)c2cc1OC.Cl` (stereo unspecified) (library stock concentration (final ~1000-fold dilution): 10 mM), the “IRF Lucia reporter activity” value in assay [1] (setting [4]) was found to be 1.07; in assay [1] (agonist: LPS (TLR4) 0.1 ug/mL), 1.14.
Regarding `Cn1c(=O)cc(C(=O)Nc2ccc3c(c2)OCCO3)c2ccccc21` (library stock concentration (final ~1000-fold dilution): 10 mM), the entries for the “IRF Lucia reporter activity” value in assay [1] (setting [4]) and in assay [1] (agonist: LPS (TLR4) 0.1 ug/mL) were 0.734 and 0.824, respectively.
In the same order, the values of `Cn1c(=O)c(Oc2ccc(F)cc2F)cc2cnc(NC(CCO)CCO)nc21` (library stock concentration (final ~1000-fold dilution): 10 mM) are 0.851 and 1.17.
In the case of `c1cc(-c2cnn3cc(-c4ccc(N5CCNCC5)cc4)cnc23)c2cccnc2c1` (library stock concentration (final ~1000-fold dilution): 10 mM), the “IRF Lucia reporter activity” value turned out to be 0.0227 in assay [3] (setting [4]) and 0.153 in assay [3] (agonist: LPS (TLR4) 0.1 ug/mL).
Regarding `c1cc(-c2cnn3cc(-c4ccc(N5CCNCC5)cc4)cnc23)c2cccnc2c1`, the “IRF Lucia reporter activity” value in assay [2] (cytotoxicity flag (confluency mask): cytotoxic (confluency <70% of control)) stood at 0.0402.
For `CC1(C)OC2COC3(COS(N)(=O)=O)OC(C)(C)OC3C2O1` (stereo unspecified) (library stock concentration (final ~1000-fold dilution): 10 mM), the “IRF Lucia reporter activity” value in assay [1] (setting [4]) was 0.946; in assay [1] (agonist: LPS (TLR4) 0.1 ug/mL), 1.04.
As to `CC1(C)OC2COC3(COS(N)(=O)=O)OC(C)(C)OC3C2O1` (stereo unspecified), the “IRF Lucia reporter activity” value in assay [2] (setting [5]) was 0.753.
`Cc1cccc(C)c1N(CC(=O)Nc1ccc(-c2ncon2)cc1)C(=O)C1CCS(=O)(=O)CC1` (library stock concentration (final ~1000-fold dilution): 10 mM): the figures for the “IRF Lucia reporter activity” value in assay [1] (setting [4]) and in assay [1] (agonist: LPS (TLR4) 0.1 ug/mL) were 1.04 and 0.693, respectively.
In the case of `Cc1cccc(C)c1N(CC(=O)Nc1ccc(-c2ncon2)cc1)C(=O)C1CCS(=O)(=O)CC1`, the “IRF Lucia reporter activity” value in assay [2] (setting [5]) was found to be 1.05.
For `COc1ccc(/C=C\c2cc(OC)c(OC)c(OC)c2)cc1O` (library stock concentration (final ~1000-fold dilution): 10 mM), the “IRF Lucia reporter activity” value in assay [1] (setting [4]) was 0.102; in assay [1] (agonist: LPS (TLR4) 0.1 ug/mL) it was 1.72.
In the case of `O=C(c1ccccc1)C(O)O`, in assay [2] (setting [5]), the “IRF Lucia reporter activity” value was 1.08.
